From PubChem BioAssay AID1240 (Sanford-Burnham Center for Chemical Genomics, 2008)
The whole screen tested about 50,000 compounds, of which about 800 (1.6%) showed an effect of 50% or more. Some of the results follow.

Each compound was assayed against Bcl-2-like protein 10 (Homo sapiens) (UniProt Q9HD36) (assay: Phenotype converters, Bcl-B/TR3 peptide binding displacement, primary biochemical FP (AID 1240;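 further: 0% = Bcl-B with tracer peptide and DMSO and 100% = tracer peptide lacking Bcl-B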)). Details: GST-Bcl-B / FITC-TR3 peptide fluorescence polarization; stronger effect = higher value; compound at 3.75 mg/L.
UniProt Q9HD36, sequence (Q9HD36 whole entry, looked up): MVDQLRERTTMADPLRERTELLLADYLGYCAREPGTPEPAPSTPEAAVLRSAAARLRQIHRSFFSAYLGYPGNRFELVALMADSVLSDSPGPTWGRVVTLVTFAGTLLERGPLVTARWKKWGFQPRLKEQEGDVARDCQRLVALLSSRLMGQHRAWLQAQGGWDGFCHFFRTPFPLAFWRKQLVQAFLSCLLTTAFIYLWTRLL

| SMILES | displacement |
| --- | --- |
| O=C(/C=C/c1ccccc1)Nc1ccc(-c2nc3ccccc3o2)c(O)c1 | 127% |
| COc1ccc(C(=O)NCCOc2ccccc2OC)cc1OC | -8.9% |
| CC1=NN(C(=O)c2ccncc2)C(O)(C(F)(F)F)C1 (stereo not drawn) | -6.3% |
| CC(=O)NC1=NC(=O)/C(=C\c2ccc(-c3ccccc3C(=O)O)o2)S1 | 14.5% |
| COc1ccc(C)cc1NC(=O)c1ccccc1I | -9.1% |
| NS(=O)(=O)c1ccc(CNS(=O)(=O)c2ccc([N+](=O)[O-])cc2)cc1 | -5.3% |
| O=C(Nc1cccc(-c2cn3ccccc3n2)c1)c1ccccc1Cl | 8% |
| O=C(Nc1ccc(Cl)c(-c2nc3ccccc3o2)c1)c1cccc(F)c1 | -5.1% |
| CC(=O)Oc1ccc(N2C(=O)c3ccc(C(=O)c4cccc([N+](=O)[O-])c4)cc3C2=O)cc1 | 2% |
| CS(=O)(=O)N1CCN(CC(O)Cn2c3ccccc3c3ccccc32)CC1 (stereo not drawn) | 12.7% |
| Cc1ccc(C(=O)N/C(=C/c2ccc(Br)cc2)c2nc3ccccc3[nH]2)cc1 | -6.2% |
| Cc1cc(C)c(N2C(=O)c3ccc(-c4nc5ccccc5c(=O)o4)cc3C2=O)c(C)c1 | 6.5% |
| Cc1ccc(-c2noc(-c3ccc([N+](=O)[O-])cc3)n2)cc1 | 6.2% |
| O=C(Nc1ccc(Nc2ccccc2)cc1)c1ccccc1 | 10.1% |
| COCC(C)NCc1cccc(Oc2ccccc2)c1 (stereo not drawn) | -0.2% |
| O=C(COC(=O)c1cccc(C#Cc2ccccc2)c1)c1ccc(Br)cc1 | 6.3% |
| Cc1occc1C(=O)NC1CCCCCC1 | -13.4% |
| CCC(CC)N1CCN(C(=O)c2cc(OC)c(OC)c(OC)c2)CC1 | -8.7% |
| COc1ccc(/C=C/C(=O)OCc2ccc([N+](=O)[O-])cc2)cc1S(=O)(=O)NCC1CCCO1 (stereo not drawn) | -11% |
| CC(=O)NN1C(=O)/C(=C\c2ccc(F)cc2)SC1=S | 22.8% |
| CCCC(=O)Nc1nnc(Cc2nnc(NC(=O)CCC)s2)s1 | 16.4% |
| O=C(NCCO)/C(=C/c1ccc(Br)cc1)NC(=O)c1cccs1 | -8.8% |
| C#Cc1cccc(NC(=O)c2ccc(Oc3ccc(NC(=O)c4cccc(C#C)c4)cc3)cc2)c1 | 1% |

| SMILES | displacement |
| --- | --- |
| Nc1ccc(-c2ccc(N3C(=O)c4cccc5c(C(=O)c6ccccc6)ccc(c45)C3=O)cc2)cc1 | -12.1% |
| COc1ccc(S(=O)(=O)N(CCc2ccccc2)CC(=O)Nc2cc(Cl)ccc2OC)cc1 | -14.8% |
| CC(=O)N1CCN(c2ccc(NC(=O)/C=C/c3ccccc3)cc2)CC1 | 11.8% |
| COc1ccc(CNC(=O)c2ccc(Cl)c(Cl)c2)cc1 | 3.7% |
| O=C1NC(=Nc2cccnc2)S/C1=C\c1cccc(F)c1 | 146% |
| COC(=O)CN(C#N)c1nc(NC(C)C)nc(NC(C)C)n1 | 7% |
| Cc1cccc(/C=N\NC(=O)COc2ccc(-c3ccccc3)cc2)c1O | 3.7% |
| COc1ccc(COC(=O)C2=C(C)NC3=C(C(=O)CC(C)(C)C3)C2c2ccsc2)cc1 (stereo not drawn) | -7.3% |
| COc1ccc(N2C(=O)c3ccccc3NC2c2ccccc2)cc1 (stereo not drawn) | 13.7% |
| CCN(CC)CCCOC(=O)c1ccc(O)c(OC)c1 | 11.5% |
| CCc1ccccc1N(CC(=O)Nc1ccc(OC)cc1OC)S(C)(=O)=O | -6.2% |
| Cc1c(Cl)cccc1NC(=O)C1CCCCC1C(=O)O (stereo not drawn) | -4.8% |
| O=[N+]([O-])c1ccc(CSc2nnnn2-c2ccccc2)cc1 | -7.6% |
| O=C(N/N=C/c1cc(Br)cc(I)c1O)c1cccc([N+](=O)[O-])c1 | 38.9% |
| O=[N+]([O-])c1ccc(S(=O)(=O)N/N=C/c2ccco2)cc1 | 2.2% |
| COc1ccc(C2NN=C(Cc3ccccc3)S2)cc1OC (stereo not drawn) | 0.7% |
| COc1ccc(NS(=O)(=O)c2cc(-c3nnnn3C)ccc2OC)cc1 | 5.9% |
| O=C1C(Cl)=C(NCCc2ccccc2)C(=O)N1c1ccc(Br)cc1 | 29.4% |
| Cc1ccc(S(=O)(=O)N2CCCC2C(=O)Nc2nccs2)cc1 (stereo not drawn) | -7% |
| O=C(NC(=S)Nc1cc(Cl)c(Cl)cc1Cl)c1ccco1 | 8.2% |
| O=S(=O)(c1ccc(Br)cc1)n1ccc2ccccc21 | 17.9% |
| O=C1C(Cl)=C(Nc2ccc3c(c2)OCO3)C(=O)N1c1ccccc1 | -3.2% |
| CC(NC(=O)C12CC3(C)CC(C)(CC(C)(C3)C1)C2)C(=O)O (stereo not drawn) | 3.5% |

| SMILES | displacement |
| --- | --- |
| Cc1ccccc1-c1n[nH]c(=S)n1C1CCCCC1 | 27.4% |
| Cc1c(OCC(=O)OCc2ccccc2)ccc2c3c(c(=O)oc12)CCC3 | 11% |
| COc1cccc(N2C(=O)C(=O)/C(=C(\O)c3ccccc3)C2c2ccccc2OC)c1 (stereo not drawn) | -4.1% |
| COC(=O)c1c(C)oc2cc(Br)c(OC(C)C(=O)OC)cc12 (stereo not drawn) | 7.2% |
| O=C(c1nn2c(c1Cl)NC(c1cccs1)CC2C(F)(F)F)N1CCOCC1 (stereo not drawn) | 4.8% |
| O=C1CN(S(=O)(=O)c2ccccc2)CCN1S(=O)(=O)c1ccccc1 | 15.5% |
| C=CCOc1c(Cl)cc(CNn2cnnc2)cc1OC | -3.1% |
| CC(=O)c1ccc(NC(=O)c2cc3nc(-c4ccc([N+](=O)[O-])cc4)cc(C(F)(F)F)n3n2)cc1 | 2.3% |
| COc1ccccc1/C=C/C(=O)c1c(-c2ccccc2)c2cc(C)ccc2[nH]c1=O | -18.9% |
| O=C(NCC1(c2ccccc2)CCOCC1)c1ccco1 | -3.7% |
| CCOC(=O)Nc1ccc2c(c1)N(C(=O)N1CCOCC1)c1ccccc1CC2 | 11.6% |
| CCOc1cccc(C(=O)Nc2cc(NC(=O)c3cccc(OCC)c3)cc(C(=O)O)c2)c1 | 11% |
| Cc1ccc(N2CC(C(=O)OCc3ccc([N+](=O)[O-])cc3)CC2=O)cc1 (stereo not drawn) | -1% |
| Cc1cc(NC(=O)c2cccc([N+](=O)[O-])c2)ccc1-c1cc2ccccc2oc1=O | 3.9% |
| COc1cccc(NC(=S)NC(=O)c2ccc(Cl)cc2)c1 | -2.5% |
| CCCOc1ccc(C(=O)Nc2ccc3ccccc3c2)cc1 | 11.2% |
| Cc1nc2ccccc2c(=O)n1N(c1ccccc1)c1ccccc1 | -5.3% |
| Cc1ccc(S(=O)(=O)N2CCCCCC2)cc1 | -12.9% |
| COCCOC(=O)c1c(C)oc2ccc(OCc3cccc(Cl)c3)cc12 | 11.2% |
| CC(C)c1ccc(/C=C2\SC(=S)N(Cc3ccco3)C2=O)cc1 | 5.6% |
| CCOC(=O)c1c(NC(=O)COc2ccc(-c3ccccc3)cc2)sc(C(C)=O)c1C | 15.8% |
| COc1ccc(C2Nc3ccccc3NC3=C2C(=O)CC(c2ccccc2)C3)cc1 (stereo not drawn) | -8.8% |
